Reference: patent US20230093512A1 (NANJING GENSCRIPT BIOTECH, published 2023)

B1: ADD19-15-H01-E (other)
heavy chain H6 (H1 fused at its C-terminus to TBRII-ECD by the E-linker): EVQLVQSGAEVKKPGASVKVSCKASGYIFTGYGITWVRQAPGQGLEWMGEIFPRRVQTYYSEKFKGRVTMTTDTSTSTAYMELRSLRSDDTAVYYCARDYDPYFALDYWGQGTTVTVSSASTKGPSVFPLAPSSKSTSGGTAALGCLVKDYFPEPVTVSWNSGALTSGVHTFPAVLQSSGLYSLSSVVTVPSSSLGTQTYICNVNHKPSNTKVDKRV[gap - human IgG1 Fc]EPKSSDKTHTSPPSPIPPHVQKSVNNDMIVTDNNGAVKFPQLCKFCDVRFSTCDNQKSCMSNCSITSICEKPQEVCVAVWRKNDENITLETVCHDPKLPYHDFILEDAASPKCIMKEKKKPGETFFMCSCSSDECNDNIIFSEEYNTSNPD
light chain L0: DIQMTQSPSSLSASVGDRVTITCRASQDVSTAVDWYQQKPGKAPKLLIYSASYRYTGVPDRFSGSGSGTDFTFTISSLQPEDIATYYCQQHYSIPFTFGQGTKLEIKRTVAAPSVFIFPPSDEQLKSGTASVVCLLNNFYPREAKVQWKVDNALQSGNSQESVTEQDSKDSTYSLSSTLTLSKADYEKHKVYACEVTHQGLSSPVTKSFNRGEC
notes: anti-PD-L1 mAb / TGFβ receptor II ectodomain fusion protein, ectodomain on the heavy chain
B2: ADD19-15-L03-E (other)
heavy chain H1: EVQLVQSGAEVKKPGASVKVSCKASGYIFTGYGITWVRQAPGQGLEWMGEIFPRRVQTYYSEKFKGRVTMTTDTSTSTAYMELRSLRSDDTAVYYCARDYDPYFALDYWGQGTTVTVSSASTKGPSVFPLAPSSKSTSGGTAALGCLVKDYFPEPVTVSWNSGALTSGVHTFPAVLQSSGLYSLSSVVTVPSSSLGTQTYICNVNHKPSNTKVDKRV[gap - human IgG1 Fc]
light chain L3 (L0 fused at its C-terminus to TBRII-ECD by the E-linker): DIQMTQSPSSLSASVGDRVTITCRASQDVSTAVDWYQQKPGKAPKLLIYSASYRYTGVPDRFSGSGSGTDFTFTISSLQPEDIATYYCQQHYSIPFTFGQGTKLEIKRTVAAPSVFIFPPSDEQLKSGTASVVCLLNNFYPREAKVQWKVDNALQSGNSQESVTEQDSKDSTYSLSSTLTLSKADYEKHKVYACEVTHQGLSSPVTKSFNRGECEPKSSDKTHTSPPSPIPPHVQKSVNNDMIVTDNNGAVKFPQLCKFCDVRFSTCDNQKSCMSNCSITSICEKPQEVCVAVWRKNDENITLETVCHDPKLPYHDFILEDAASPKCIMKEKKKPGETFFMCSCSSDECNDNIIFSEEYNTSNPD
notes: anti-PD-L1 mAb / TGFβ receptor II ectodomain fusion protein, ectodomain on the light chain
B3: ADD19-15-L03-E4 (other)
heavy: B2 heavy chain H1
light: DIQMTQSPSSLSASVGDRVTITCRASQDVSTAVDWYQQKPGKAPKLLIYSASYRYTGVPDRFSGSGSGTDFTFTISSLQPEDIATYYCQQHYSIPFTFGQGTKLEIKRTVAAPSVFIFPPSDEQLKSGTASVVCLLNNFYPREAKVQWKVDNALQSGNSQESVTEQDSKDSTYSLSSTLTLSKADYEKHKVYACEVTHQGLSSPVTKSFNRGECSPPSIPPHVQKSVNNDMIVTDNNGAVKFPQLCKFCDVRFSTCDNQKSCMSNCSITSICEKPQEVCVAVWRKNDENITLETVCHDPKLPYHDFILEDAASPKCIMKEKKKPGETFFMCSCSSDECNDNIIFSEEYNTSNPD
notes: also called ADD19-15-03-E4
B4: ADD19-15-L03-E5 (other)
heavy: B2 heavy chain H1
light: DIQMTQSPSSLSASVGDRVTITCRASQDVSTAVDWYQQKPGKAPKLLIYSASYRYTGVPDRFSGSGSGTDFTFTISSLQPEDIATYYCQQHYSIPFTFGQGTKLEIKRTVAAPSVFIFPPSDEQLKSGTASVVCLLNNFYPREAKVQWKVDNALQSGNSQESVTEQDSKDSTYSLSSTLTLSKADYEKHKVYACEVTHQGLSSPVTKSFNRGECSPPSPIPPHVQKSVNNDMIVTDNNGAVKFPQLCKFCDVRFSTCDNQKSCMSNCSITSICEKPQEVCVAVWRKNDENITLETVCHDPKLPYHDFILEDAASPKCIMKEKKKPGETFFMCSCSSDECNDNIIFSEEYNTSNPD
notes: also called ADD19-15-03-E5

The binders below were run against human PD-L1 (PD-L1 aAPC/CHO-K1 cells) (human, UniProt Q9NZQ7) (assay: cell-based or functional assay).
UniProt Q9NZQ7, sequence (Q9NZQ7 19-290): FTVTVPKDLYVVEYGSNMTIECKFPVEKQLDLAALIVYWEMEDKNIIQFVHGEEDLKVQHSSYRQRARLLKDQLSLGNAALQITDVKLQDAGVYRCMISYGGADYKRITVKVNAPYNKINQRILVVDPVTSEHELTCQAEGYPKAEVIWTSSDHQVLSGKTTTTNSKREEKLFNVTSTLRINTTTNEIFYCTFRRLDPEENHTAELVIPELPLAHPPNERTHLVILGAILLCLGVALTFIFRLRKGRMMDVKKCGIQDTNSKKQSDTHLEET

B1 and B2 are within 1.5-fold of each other in “EC50, luminescence (RLU) of PD-1 effector cells co-cultured with PD-L1 aAPC/CHO-K1 cells, PD-1/PD-L1 blockade bioassay” value: 0.635 nM for the first, 0.692 nM for the second.

B3 and B4 are within 1.5-fold of each other in “EC50, luminescence (RLU) of PD-1 effector cells co-cultured with PD-L1 aAPC/CHO-K1 cells, PD-1/PD-L1 blockade bioassay” value: 0.621 nM for the first, 0.611 nM for the second.
